Measurements reported in PMC11995724, “Antibiotic target discovery by integrated phenotypic and activity-based profiling of electrophilic fragments” (Cell chemical biology, 2025).
About 110 (3.4%) of roughly 3,200 compounds showed an effect of 50% or more. Some of the results follow.

tested on: T1, V. cholerae SAD30; parameters: species or system S. aureus MSSA476 (TSB) or V. cholerae SAD30 (LB); 384-well bacterial growth screen at 25 uM, OD600 relative to DMSO control; conditions: relative growth, OD600, LB; 25 µM; inhibitor
T1 construct: SAD30

Structure (SMILES) | % of control remaining
N#CC(=Cc1ccco1)C(=O)NC1CCN(c2ccc(F)cc2F)C1 (centres unmarked) [9-L09, 2-cyano-N-[1-(2,4-difluorophenyl)pyrrolidin-3-yl]-3-(furan-2-yl)prop-2-enamide] | 69.1366%
C=CC(=O)NCC1CC(CC(=O)O)CO1 (centres unmarked) [2-E03, 2-{5-[(prop-2-enamido)methyl]oxolan-3-yl}acetic acid] | 113.51%
C=CC(=O)N1CCC(C(=O)Nc2cccc(NC(=O)C(C)C)c2)CC1 [3-F05, N-[3-(2-methylpropanamido)phenyl]-1-(prop-2-enoyl)piperidine-4-carboxamide] | 93.3248%
C=CC(=O)NC1CCN(c2nnnn2C)CC1 [3-G06, N-[1-(1-methyl-1H-1,2,3,4-tetrazol-5-yl)piperidin-4-yl]prop-2-enamide] | 94.9127%
COc1cc(C=C(C#N)C(=O)NCc2ccccc2)cc2c1OCCO2 [9-I10, N-benzyl-2-cyano-3-(8-methoxy-2,3-dihydro-1,4-benzodioxin-6-yl)prop-2-enamide] | 87.2196%
Cc1ccccc1C(NC(=O)CCl)c1ccccc1C [7-J04, N-[bis(2-methylphenyl)methyl]-2-chloroacetamide] | 93.5734%
C=CC(=O)N1CCC[C@H]1C(=O)Nc1cccc(C)n1 [1-B10, (2S)-N-(6-methylpyridin-2-yl)-1-(prop-2-enoyl)pyrrolidine-2-carboxamide] | 90.0393%
CC(Cl)C(=O)NCc1ccc(Cl)cc1 (centres unmarked) [6-I04, 2-chloro-N-[(4-chlorophenyl)methyl]propanamide] | 95.0991%
CC(Cl)C(=O)NC1CCc2ccccc2-n2ccnc21 (centres unmarked) [7-E06, 2-chloro-N-{2,5-diazatricyclo[8.4.0.0,2,6]tetradeca-1(14),3,5,10,12-pentaen-7-yl}propanamide] | 78.2422%
C=CC(=O)N1CCN(CC2CCOC2)CC1 (centres unmarked) [1-H18, 1-{4-[(oxolan-3-yl)methyl]piperazin-1-yl}prop-2-en-1-one] | 94.946%
CNc1ccc(C=C(C#N)C(=O)Nc2ccccc2F)cc1[N+](=O)[O-] [8-N09, 2-cyano-N-(2-fluorophenyl)-3-[4-(methylamino)-3-nitrophenyl]prop-2-enamide] | 72.8076%
CSc1ccc(C=C(C#N)C(=O)Nc2ccc(C(=O)O)cc2)cc1 [9-M08, 4-{2-cyano-3-[4-(methylsulfanyl)phenyl]prop-2-enamido}benzoic acid] | 88.3073%
C=CC(=O)NCc1ccc(C(=O)N2CCCC2C(=O)N(C)C)cc1 (centres unmarked) [2-D22, N,N-dimethyl-1-{4-[(prop-2-enamido)methyl]benzoyl}pyrrolidine-2-carboxamide] | 111.194%
CC(Cl)C(=O)N1CCCC1c1nc(-c2ccccc2)n[nH]1 (centres unmarked) [7-I09, 2-chloro-1-[2-(3-phenyl-1H-1,2,4-triazol-5-yl)pyrrolidin-1-yl]propan-1-one] | 77.4492%
C=CC(=O)NCc1ccc2oc(=O)n(C)c2c1 [2-L15, N-[(3-methyl-2-oxo-2,3-dihydro-1,3-benzoxazol-5-yl)methyl]prop-2-enamide] | 88.6519%
O=C(CCl)Nc1cc(C2CC2)nn1-c1ccccc1 [4-I15, 2-chloro-N-(3-cyclopropyl-1-phenyl-1H-pyrazol-5-yl)acetamide] | 105.413%
Cc1cc(CNC(=O)CCl)[nH]n1 [7-L22, 2-chloro-N-[(3-methyl-1H-pyrazol-5-yl)methyl]acetamide] | 91.7231%
CN(Cc1ccccc1)S(=O)(=O)c1ccc(NC(=O)CCl)cc1 [5-K08, N-{4-[benzyl(methyl)sulfamoyl]phenyl}-2-chloroacetamide] | 97.1735%
CCc1cccc(CC)c1NC(=O)CCl [4-F10, 2-chloro-N-(2,6-diethylphenyl)acetamide] | 103.86%
CC(Cl)C(=O)N1CCCc2ccc(N(C)C)cc2C1 (centres unmarked) [7-C15, 2-chloro-1-[8-(dimethylamino)-2,3,4,5-tetrahydro-1H-2-benzazepin-2-yl]propan-1-one] | 74.2772%
C=CC(=O)NC1CCN(Cc2ccccc2)C1 (centres unmarked) [1-N15, N-(1-benzylpyrrolidin-3-yl)prop-2-enamide] | 87.145%
CCc1cccc(CC)c1NC(=O)C(C#N)=Cc1ccc(C#N)cc1 [9-O15, 2-cyano-3-(4-cyanophenyl)-N-(2,6-diethylphenyl)prop-2-enamide] | 87.2196%

Structure (SMILES) | % of control remaining
C=CC(=O)N1CCC(C(=O)N(C)Cc2cc(C(C)(C)C)[nH]n2)CC1 [2-F10, N-[(5-tert-butyl-1H-pyrazol-3-yl)methyl]-N-methyl-1-(prop-2-enoyl)piperidine-4-carboxamide] | 88.4975%
C=CC(=O)NCc1nc2ccccc2s1 [1-I12, N-[(1,3-benzothiazol-2-yl)methyl]prop-2-enamide] | 86.5471%
Cc1cccc(C)c1NC(=O)C(C#N)=Cc1ccc(C(=O)O)cc1 [9-G17, 4-{2-cyano-2-[(2,6-dimethylphenyl)carbamoyl]eth-1-en-1-yl}benzoic acid] | 85.86%
Cc1cccc(C)c1NC(=O)CNC(=O)C(C)Cl (centres unmarked) [6-F10, 2-chloro-N-{[(2,6-dimethylphenyl)carbamoyl]methyl}propanamide] | 86.1503%
CCCCNC(=O)C(C#N)=Cc1cc(C)c(O)c(C)c1 [9-E09, N-butyl-2-cyano-3-(4-hydroxy-3,5-dimethylphenyl)prop-2-enamide] | 83.4126%
C=CC(=O)N1CCC(n2nc(C)nc2O)CC1 [3-P21, 1-[4-(5-hydroxy-3-methyl-1H-1,2,4-triazol-1-yl)piperidin-1-yl]prop-2-en-1-one] | 115.38%
O=C(CCl)c1ccc(F)c(F)c1 [10-L13, 2-chloro-1-(3,4-difluorophenyl)ethan-1-one] | 4.208%
CC(Cl)C(=O)NC1CS(=O)(=O)Cc2ccccc21 (centres unmarked) [6-L20, 2-chloro-N-(2,2-dioxo-3,4-dihydro-1H-2lambda6-benzothiopyran-4-yl)propanamide] | 91.9139%
O=C(CCl)NC(c1ccccc1)c1cccs1 (centres unmarked) [4-J14, 2-chloro-N-[phenyl(thiophen-2-yl)methyl]acetamide] | 104.205%
C=CC(=O)NCc1c(Cl)c(C(F)(F)F)nn1C [2-J07, N-{[4-chloro-1-methyl-3-(trifluoromethyl)-1H-pyrazol-5-yl]methyl}prop-2-enamide] | 87.88%
CC(Cl)C(=O)NC1CCCN(S(=O)(=O)N2CCOCC2)C1 (centres unmarked) [6-L03, 2-chloro-N-[1-(morpholine-4-sulfonyl)piperidin-3-yl]propanamide] | 103.289%
C=CC(=O)N1CCOC(c2noc(C(C)C)n2)C1 (centres unmarked) [1-O05, 1-{2-[5-(propan-2-yl)-1,2,4-oxadiazol-3-yl]morpholin-4-yl}prop-2-en-1-one] | 92.0777%
C=CC(=O)NC1CCN(c2ccccc2S(=O)(=O)CC)CC1 [2-M03, N-{1-[2-(ethanesulfonyl)phenyl]piperidin-4-yl}prop-2-enamide] | 99.3052%
C=CC(=O)N(C)CC(=O)NC(C)(C)c1nc(C)cs1 [3-E14, N-methyl-N-({[2-(4-methyl-1,3-thiazol-2-yl)propan-2-yl]carbamoyl}methyl)prop-2-enamide] | 97.7357%
O=C(CCl)NCCN1C(=O)SC(=Cc2ccccc2F)C1=O [4-A10, 2-chloro-N-(2-{5-[(2-fluorophenyl)methylidene]-2,4-dioxo-1,3-thiazolidin-3-yl}ethyl)acetamide] | 105.24%
COc1ccc2c(c1)OCCN(C(=O)C(C)Cl)C2 (centres unmarked) [7-E04, 2-chloro-1-(8-methoxy-2,3,4,5-tetrahydro-1,4-benzoxazepin-4-yl)propan-1-one] | 86.04%
O=C(CCl)N1CCN(S(=O)(=O)c2cccc([N+](=O)[O-])c2)CC1 [4-C19, 2-chloro-1-[4-(3-nitrobenzenesulfonyl)piperazin-1-yl]ethan-1-one] | 91.0934%
C=CC(=O)NC1CCCN(c2cc(N3CCOCC3)ncn2)C1 (centres unmarked) [1-A08, N-{1-[6-(morpholin-4-yl)pyrimidin-4-yl]piperidin-3-yl}prop-2-enamide] | 90.284%
N#CC(C(=O)CCl)=C1Nc2cc(Cl)ccc2S1 [10-O08, 4-chloro-2-(5-chloro-2,3-dihydro-1,3-benzothiazol-2-ylidene)-3-oxobutanenitrile] | 95.5387%
CC(Cl)C(=O)NCC(c1ccc(Cl)cc1)n1cccn1 (centres unmarked) [7-J05, 2-chloro-N-[2-(4-chlorophenyl)-2-(1H-pyrazol-1-yl)ethyl]propanamide] | 79.4317%
N#CC(=Cc1cccc(F)c1F)C(=O)NCc1ccccc1 [8-B06, N-benzyl-2-cyano-3-(2,3-difluorophenyl)prop-2-enamide] | 74.983%
O=C(CCl)Cc1cccc(F)c1 [10-C11, 1-chloro-3-(3-fluorophenyl)propan-2-one] | 7.637%
